{
  "source": "the antibiotic and cytotoxicity screens of Wong et al. (2023)",
  "note": "This is one part of the list.",
  "data": [
    {"test_system": "HSkMC (human skeletal muscle cells)", "assay": "cytotoxicity call (relative viability < 0.9)", "details": "10 µM", "values": [
      {"compound": "COc1ccc(NC(=O)Nc2ccc3c(c2)C(=O)N([C@H](C)CO)C[C@@H](C)[C@@H](CN(C)C(=O)C2CCCCC2)OCCCC[C@@H](C)O3)cc1", "cytotoxicity call": "inactive"},
      {"compound": "C[C@@H]1CN([C@H](C)CO)C(=O)c2cccc(NS(=O)(=O)c3cn(C)cn3)c2O[C@@H]1CN(C)C(=O)NC1CCCCC1", "cytotoxicity call": "inactive"},
      {"compound": "Cc1cn([C@@H]2O[C@H](CO)[C@@H](O)[C@H]2O)c(=O)nc1N", "cytotoxicity call": "inactive"},
      {"compound": "C[C@H](CO)N1C[C@H](C)[C@H](CN(C)Cc2ccc(C(F)(F)F)cc2)Oc2c(NC(=O)Nc3ccc(C(F)(F)F)cc3)cccc2C1=O", "cytotoxicity call": "inactive"},
      {"compound": "O=C(C[C@@H]1CC=CCC[C@H](Cc2ccc(F)cc2)C(=O)OCCNC1=O)N[C@@H](CO)Cc1ccccc1", "cytotoxicity call": "inactive"},
      {"compound": "CC(C)(Oc1ccc(C2CC2(Cl)Cl)cc1)C(=O)O", "note": "(centres undefined)", "cytotoxicity call": "inactive"},
      {"compound": "O=C1NCC[C@H]2[C@H]1N=C(N1CCCCC1)N2[C@H]1O[C@H](CO)[C@@H](O)[C@@H]1O", "cytotoxicity call": "inactive"},
      {"compound": "C[C@H]1CN([C@@H](C)CO)C(=O)c2cccc(NS(=O)(=O)c3cn(C)cn3)c2O[C@@H]1CN(C)C(=O)Nc1ccc2c(c1)OCO2", "cytotoxicity call": "inactive"},
      {"compound": "Cc1noc(C)c1S(=O)(=O)Nc1ccc2c(c1)C(=O)N([C@H](C)CO)C[C@H](C)[C@@H](CN(C)Cc1ccc(Cl)c(Cl)c1)OCCCC[C@H](C)O2", "cytotoxicity call": "inactive"}
    ]},
    {"test_system": "HepG2", "assay": "cytotoxicity call (relative viability < 0.9)", "details": "10 µM", "values": [
      {"compound": "CCC[C@@H](O)C#Cc1cnc2c(c1)C(=O)N([C@H](C)CO)C[C@H](C)[C@H](CN(C)S(=O)(=O)c1cn(C)cn1)O2", "cytotoxicity call": "inactive"},
      {"compound": "C[C@H]1CN([C@@H](C)CO)S(=O)(=O)c2ccc(/C=C/c3ccccc3)cc2O[C@H]1CN(C)C(=O)CN1CCOCC1", "cytotoxicity call": "inactive"},
      {"compound": "Cc1ccc(S(=O)(=O)Nc2ccc3c(c2)CC(=O)N([C@@H](C)CO)C[C@@H](C)[C@H](CN(C)S(=O)(=O)c2cccs2)O3)cc1", "cytotoxicity call": "inactive"},
      {"compound": "C[C@@H]1CCCCO[C@H](CN(C)C)[C@H](C)CN([C@@H](C)CO)C(=O)c2cc(NS(=O)(=O)c3cn(C)cn3)ccc2O1", "cytotoxicity call": "inactive"},
      {"compound": "CN1C(=O)c2cc(NC(=O)C3CCC3)ccc2OC[C@@H]2O[C@H](CC(=O)NCCc3ccncc3)CC[C@@H]21", "cytotoxicity call": "inactive"},
      {"compound": "CO[C@H]1CN(C)C(=O)c2cc(NC(=O)C3CCOCC3)ccc2OC[C@H](C)N(Cc2cccnc2)C[C@@H]1C", "cytotoxicity call": "inactive"},
      {"compound": "C[C@@H]1CCCCO[C@H](CN(C)S(C)(=O)=O)[C@@H](C)CN([C@H](C)CO)C(=O)c2cc(NC(=O)Nc3cccc4ccccc34)ccc2O1", "cytotoxicity call": "inactive"},
      {"compound": "Cc1ccc(-c2ccc3c(c2)O[C@H](CN(C)C(=O)NC(C)C)[C@H](C)CN([C@H](C)CO)S3(=O)=O)cc1", "cytotoxicity call": "inactive"},
      {"compound": "Cc1ccc(S[C@]2(C(=O)NCC(C)C)CC(=O)N(Cc3ccccc3Cl)[C@@H]2c2ccc(CO)cc2I)cc1", "cytotoxicity call": "inactive"},
      {"compound": "CC=Cc1ccc2n(c1=O)C[C@@H]1[C@@H](CO)[C@H](C(=O)NCCc3cn(C)cn3)N(C(=O)C3CC3)[C@H]21", "cytotoxicity call": "inactive"},
      {"compound": "CC1(C(=O)O)CCC2(C)CCC3(C)C(=CC(=O)C4C5(C)CCC(O)C(C)(C)C5CCC43C)C2C1", "note": "(centres undefined)", "cytotoxicity call": "inactive"},
      {"compound": "C[C@H]1CN([C@@H](C)CO)C(=O)Cc2cc(NC(=O)Cc3ccccc3)ccc2O[C@H]1CN(C)C(=O)Nc1ccc(C(F)(F)F)cc1", "cytotoxicity call": "inactive"},
      {"compound": "CC1=C(C(=O)O)N2C(=O)[C@@H](NC(=O)[C@H](N)c3ccccc3)[C@H]2SC1", "cytotoxicity call": "inactive"},
      {"compound": "C[C@@H]1CCCCO[C@@H](CN(C)Cc2ccc(Cl)c(Cl)c2)[C@H](C)CN([C@@H](C)CO)C(=O)c2cc(NC(=O)NC3CCCCC3)ccc2O1", "cytotoxicity call": "inactive"},
      {"compound": "C[C@H]1CN([C@@H](C)CO)C(=O)c2cccc(NS(=O)(=O)c3cn(C)cn3)c2O[C@H]1CN(C)S(=O)(=O)c1cccs1", "cytotoxicity call": "inactive"},
      {"compound": "Nc1nc(=O)c2nc(Br)n([C@H]3O[C@H]4CO[PH](O)(O)O[C@@H]4[C@@H]3O)c2[nH]1", "cytotoxicity call": "inactive"},
      {"compound": "C[C@@H]1CCCCO[C@H](CN(C)CC2CCCCC2)[C@H](C)CN([C@@H](C)CO)C(=O)c2cc(NC(=O)c3ccccc3)ccc2O1", "cytotoxicity call": "inactive"},
      {"compound": "O=C(C[C@H]1CC[C@H](NC(=O)CN2CCOCC2)[C@H](CO)O1)NCCc1ccccc1", "cytotoxicity call": "inactive"},
      {"compound": "C[C@H]1CCCCO[C@@H](CN(C)S(=O)(=O)c2ccc(F)cc2)[C@@H](C)CN([C@@H](C)CO)C(=O)c2cc(NS(=O)(=O)c3cn(C)cn3)ccc2O1", "cytotoxicity call": "inactive"},
      {"compound": "Cc1noc(C)c1NC(=O)N(C)C[C@H]1Oc2ncc(C#CCC(C)C)cc2C(=O)N([C@H](C)CO)C[C@@H]1C", "cytotoxicity call": "inactive"},
      {"compound": "C[C@H]1CCCCO[C@H](CN(C)Cc2ccc(C(=O)O)cc2)[C@@H](C)CN([C@@H](C)CO)C(=O)c2cc(NC(=O)Nc3cccc4ccccc34)ccc2O1", "cytotoxicity call": "inactive"},
      {"compound": "Cn1c(Cl)cnc1CO", "cytotoxicity call": "inactive"},
      {"compound": "C[C@H]1CN([C@@H](C)CO)C(=O)Cc2cc(NC(=O)CCC(F)(F)F)ccc2O[C@H]1CN(C)S(=O)(=O)c1cccs1", "cytotoxicity call": "inactive"},
      {"compound": "Cc1ccc(S(=O)(=O)C[C@H](C)N2CCOCC2)c(S(=O)(=O)C[C@@H](C)N2CCOCC2)c1", "cytotoxicity call": "inactive"},
      {"compound": "NCCNC(=O)c1ccc(Cl)cn1", "cytotoxicity call": "inactive"},
      {"compound": "C[C@H](CO)N1C[C@H](C)[C@@H](CN(C)Cc2ccncc2)Oc2ccc(NS(=O)(=O)c3ccccc3)cc2CC1=O", "cytotoxicity call": "inactive"},
      {"compound": "C[C@@H]1CCCCO[C@@H](CN(C)Cc2ccccc2)[C@@H](C)CN([C@@H](C)CO)C(=O)c2cc(NS(=O)(=O)c3ccc(F)cc3)ccc2O1", "cytotoxicity call": "inactive"},
      {"compound": "CCS(=O)(=O)Nc1ccc2c(c1)C(=O)N(C)C[C@@H](OC)[C@@H](C)CN(Cc1nccs1)[C@H](C)CO2", "cytotoxicity call": "inactive"},
      {"compound": "CC(C)(O)c1ccccc1CCC(SCC1(CC(=O)[O-])CC1)c1cccc(C=Cc2ccc3ccc(Cl)cc3n2)c1.[Na+]", "note": "(centres undefined)", "cytotoxicity call": "inactive"},
      {"compound": "OC[C@H]1O[C@@H](n2ncc3c(O)ncnc32)[C@H](O)[C@@H]1O", "cytotoxicity call": "inactive"},
      {"compound": "CC(C)NC(=O)N(C)C[C@@H]1Oc2ccc(NC(=O)NC3CCCCC3)cc2CC(=O)N([C@H](C)CO)C[C@@H]1C", "cytotoxicity call": "inactive"},
      {"compound": "COc1ccc(NC(=O)Nc2ccc3c(c2)C(=O)N([C@H](C)CO)C[C@@H](C)[C@@H](CN(C)C(=O)C2CCCCC2)OCCCC[C@@H](C)O3)cc1", "cytotoxicity call": "inactive"},
      {"compound": "C[C@@H]1CN([C@H](C)CO)C(=O)c2cccc(NS(=O)(=O)c3cn(C)cn3)c2O[C@@H]1CN(C)C(=O)NC1CCCCC1", "cytotoxicity call": "inactive"},
      {"compound": "Cc1cn([C@@H]2O[C@H](CO)[C@@H](O)[C@H]2O)c(=O)nc1N", "cytotoxicity call": "inactive"},
      {"compound": "C[C@H](CO)N1C[C@H](C)[C@H](CN(C)Cc2ccc(C(F)(F)F)cc2)Oc2c(NC(=O)Nc3ccc(C(F)(F)F)cc3)cccc2C1=O", "cytotoxicity call": "inactive"},
      {"compound": "O=C(C[C@@H]1CC=CCC[C@H](Cc2ccc(F)cc2)C(=O)OCCNC1=O)N[C@@H](CO)Cc1ccccc1", "cytotoxicity call": "inactive"},
      {"compound": "CC(C)(Oc1ccc(C2CC2(Cl)Cl)cc1)C(=O)O", "note": "(centres undefined)", "cytotoxicity call": "inactive"},
      {"compound": "O=C1NCC[C@H]2[C@H]1N=C(N1CCCCC1)N2[C@H]1O[C@H](CO)[C@@H](O)[C@@H]1O", "cytotoxicity call": "inactive"},
      {"compound": "C[C@H]1CN([C@@H](C)CO)C(=O)c2cccc(NS(=O)(=O)c3cn(C)cn3)c2O[C@@H]1CN(C)C(=O)Nc1ccc2c(c1)OCO2", "cytotoxicity call": "inactive"},
      {"compound": "Cc1noc(C)c1S(=O)(=O)Nc1ccc2c(c1)C(=O)N([C@H](C)CO)C[C@H](C)[C@@H](CN(C)Cc1ccc(Cl)c(Cl)c1)OCCCC[C@H](C)O2", "cytotoxicity call": "inactive"}
    ]}
  ]
}
